One molecule from US20040063910A1 (CHIRON, published 2004) can be followed below.

For the assay, the target named is basic FGF (bFGF) (UniProt P09038 part only, limits assumed, 125I label on the tracer form). In words: cell-based or functional assay.
Sequence of UniProt P09038 (P09038 143-288 limits assumed): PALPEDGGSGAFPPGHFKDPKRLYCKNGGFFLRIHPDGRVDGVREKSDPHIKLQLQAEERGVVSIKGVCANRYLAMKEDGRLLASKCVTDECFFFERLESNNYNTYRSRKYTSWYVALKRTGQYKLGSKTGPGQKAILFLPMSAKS

B1: FGFR-Ig Fc fusion protein dimer according to Construct #1 (Fc fusion)
chain: RPSPTLPEQAQPWGAPVEVESFLVHPGDLLQLRCRLRDDVQSINWLRDGVQLAESNRTRITGEEVEVQDSVPADSGLYACVTSSPSGSDTTYFSVNVSDALPSSEDDDDDDDSSSEEKETDNTKPNPVAPYWTSPEKMEKKLHAVPAAKTVKFKCPSSGTPNPTLRWLKNGKEFKPDHRIGGYKVRYATWSIIMDSVVPSDKGNYTCIVENEYGSINHTYQLDVVERSPHRPILQAGLPANKTVALGSNVEFMCKVYSDPQPHIQWLKHIEVNGSKIGPDNLPYVQILKTAGVNTTDKEMEVLHLRNVSFEDAGEYTCLAGNSIGLSHHSAWLTVLEALEERPAVMTSPLYLESRGGLVPRGSGSPGLQ[human IgG1 Fc not listed]
notes: Dimer through the IgG1 hinge; also called FGFR ECD Ig; FGFR-Ig Fc fusion dimer
With B1, the “inhibition of HUVEC proliferation in the presence of serum and bFGF, potency against FGFR monomer” value amounted to 10 fold.
